Data reported in patent US8492383B2 (Jewish General Hospital, priority 2002, dated 2013).
Where “and” joins values, the source holds several entries; their conditions need not be identical. Equal entries are not always repeated.

Tested on: WSU cell line
Conditions: drug alone, MTT 72 hours, mean of three independent experiments ± SE

O=C(O)CCCc1ccc(N(CCCl)CCCl)cc1 [CLB, chlorambucil]
LD50: 34 µM and 34.00 ± 2.82 µM
